Reference: publication PMC5522996, “Big conductance calcium‐activated potassium channel openers control spasticity without sedation” (British Journal of Pharmacology, 2017)

Tested on: healthy humans
Assay: Phase I single dose: heart rate and blood pressure supine/standing
Details: 60min

C[C@H](CO)NC(=O)c1cccc(/C=C\CCCC(=O)N(C)C)c1 [VSN16R]
Systolic Blood Pressure Supine (25mg): 114 ± 5 mm Hg | Systolic Blood Pressure Supine (800mg): 117 ± 7 mm Hg
